# Source: the supplement of paper PMC11417369
# ± gives the standard deviation of the averaged measurements. The list shows a part of the results.
# Test system: PfAP2-EXP AP2 domain (GST-tagged)
# Assay: gcPBM binding intensity (ln(normalized median fluorescence intensity)); higher = stronger DNA binding
# Summary of the method: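 Probes on an Agilent 4 × 180k array were primer-extended, double-stranded and 36 bp long, taken from intergenic genomic regions, with negative controls added. GST-tagged P. falciparum DNA-binding domains from E. coli, about 25 μg on average, were applied to the array for 1 h in 1× PBS containing 1% milk, 0.2 mg/ml BSA, 0.5% salmon testes DNA and 0.03% Triton X-100. Binding intensity, obtained after Alexa488 anti-GST antibody detection and a 488 nm scan, is the highest Masliner-normalised natural-log median intensity across replicate spots of either probe orientation.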
row,Sequence,gcPBM binding intensity (ln)
1,AAAAGATAAAATTATGCACACATACGAATAATTTTA [CACACA_site8497],8.54 ± 0.44
2,AAATGGGAAATTTCATGTACTCATTTACCCTTATTA [XGTACX_site4740],8.22 ± 0.42
3,ATCTGACAAAAGTGTACACATATATATATATATATA [CACACA_site4814],10.2 ± 0.61
4,CACATAATGAAAAATACACACATGTATATTTATAAA [CACACA_site2736],8.36 ± 0.39
5,TTGAAGTATAATAAAGTGCAAAATTATAATGATCTT [GTGCAC_site9639],8.77 ± 0.41
6,GTTAATTTTTGTATAGTGCAAAAATATAATAGTATG,8.945 ± 0.049
7,TGTTGGTATGTGAATGCATGCATATAAGTCTATCTG [TGCATGCA_site780],9.98 ± 0.099
8,TGGATATATGTAAAAATTGCAAGAAAGATAAAAGGA [CACACA_negctrl_site64],9.22 ± 0.44
9,TCTATGAATTAATATGCATGTAACGTATTTATACTT [TGCATGCA_site669],8.79 ± 0.33
10,ATTATGATATATATATGTACATATATATAATATAAT [XGTACX_site259],8.46 ± 0.33
11,TTTTATATATATTATACACACAAGGAAAAAAAAAAA [CACACA_site3677],8.69 ± 0.44
12,TTTTTTTTTTTCCTTACACACATATTTCATTTTATA [CACACA_site747],8.73 ± 0.37
13,TTTTTATTTTTTAGTAGTACACACTTTTTGAACCTT [XGTACX_site1091],8.79 ± 0.28
14,AAAAAAAAAAAAAGTGCACACTTTTAATATAAATAT [CACACA_site3314],8.635 ± 0.035
15,TATAAAAGGAAACACACACACATATATATATATATA [CACACA_site939],10.2 ± 0.4
16,TTATAATATAAAAAATGTACATTAAAAAAAAAGATT [XGTACX_site8950],8.9 ± 0.4
17,AAGTATCAAAAATAAAGTACATATTTTGTAGGCAGG [XGTACX_site1463],8.92 ± 0.28
18,CAAAAAATATATTTTTGTACTTATGTTTTTATTTTG [XGTACX_site5230],8.58 ± 0.31
19,TAGTATAATATGAACACACACACACCCACAAAAAAA [CACACA_site2009],8.93 ± 0.58

row,Sequence,gcPBM binding intensity (ln)
1,GTACAAAAAAAAATAAAATACATATATATATATATA [GTGCAC_negctrl_site364],10.1 ± 0.41
2,GAATATATAAGATACACACACAAATTAAATATAAAA [CACACA_site2781],8.82 ± 0.32
3,TATTATATATATGTTGACATATTTGTACACTCCACT [TGCATGCA_negctrl_site200],8.79 ± 0.61
4,AAAATATTTCATATATGTACTTAAAAAAAAAAAAAA [XGTACX_site5399],8.27 ± 0.38
5,AAAAAATTCATATATACACACACGCACATATATATA [CACACA_site4226],8.66 ± 0.27
6,CACTTTTCTGGAAAAATTCCCACATTTTTTTATTAA [GTGCAC_negctrl_site322],8.48 ± 0.44
7,AAAAAAAAAAAAAACACACACACACGCATAAATATA [CACACA_site6217],8.69 ± 0.55
8,TTATGTAAAAAAAAAAAAAAAAAAAAAAAAAAAAAA [CACACA_negctrl_site984],8.02 ± 0.36
9,TCTTCATATAAGAACACATGCAGATTTTTATTATTG [TGCATGCA_site682],8.73 ± 0.18
10,GATAAAGTACTTTATACACACAAATATTTATTTATA [CACACA_site7795],8.61 ± 0.37
11,AAAAAAAAAAAAAAACGTACACATATTATGTTATTT [XGTACX_site5264],8.645 ± 0.049
12,CATATAATATAATTATGTACATATATAATAATATAC [XGTACX_site5278],8.47 ± 0.29
13,AAAAAAAAGTTGTATTGTACAAAAAAAAAAAAAAAA [XGTACX_site8334],8.35 ± 0.5
14,TCATAAAAACTAATACGTACTTAAAAATATGAACTT [XGTACX_site2939],8.61 ± 0.48
15,AATCCCCACTTGTCAAGTACATATATCATGGATGAA [XGTACX_site3486],8.73 ± 0.52
16,GCCAAAATCTAATTTACACACTTATTAAATAATTAC [CACACA_site6251],8.38 ± 0.38
17,TATTTATAACAAAGGTTAAATTAAAACTAATCCACA [TGCATGCA_negctrl_site3],8.15 ± 0.31
18,GACATAGTCATATACTGTACTTTATATTATTGTGTA [XGTACX_site6636],8.35 ± 0.3
19,TTTTTTTTTTTTTTTTGTACTTATAAAAAATTTTTT [XGTACX_site1249],8.26 ± 0.35

row,Sequence,gcPBM binding intensity (ln)
1,TACAGATATAAACACACACACATATATATATATATA [CACACA_site4846],10.2 ± 0.48
2,TTTTTTTTCATTGGTTGTACAATATTTATAATTCAC [XGTACX_site7036],8.635 ± 0.007
3,TTTGTTAATATAAAAACACACAAAAATAACATAAAA [CACACA_site2619],8.71 ± 0.38
4,ATGTAATATTTACAACGTACAAATTATAAACATATT [XGTACX_site603],8.54 ± 0.3
5,TCATATTGGCTGTTCTGTACTTATAAGTTTTAAAGA [XGTACX_site5593],8.88 ± 0.36
6,TATATTAAAAAAGAGGTGCATTCGTAAGAGGTTAAA [GTGCAC_site9720],8.75 ± 0.33
7,ATATATATATATATATGTACATATACATATGTGCAA [XGTACX_site5604],10 ± 0.5
8,AAATGAATAAATAGGTCACACACAAATATATATAAA [CACACA_site8764],8.88 ± 0.42
9,TATTTTTAAAATATAAGTAAAAAAATAATATAAACT [TGCATGCA_negctrl_site283],8.69 ± 0.55
10,AATAAATAAAGAAGTACACACATATATATATATATA [CACACA_site4314],10.1 ± 0.41
11,ATAATAAAAAAAATTAGTACATATATAAATATAAAT [XGTACX_site1937],8.3 ± 0.33
12,ATATATCTATAAAAGGCTTCCCACTTTTTTTGTCAA [TGCATGCA_negctrl_site332],8.57 ± 0.25
13,TAATTTCTTAGGTATTGTACAAATATTATATGATAT [XGTACX_site256],8.55 ± 0.43
14,AGTACATTTTTGTGTGTGCACTAATATTATATACTT [GTGCAC_site9568],8.88 ± 0.11
15,TAAATAATATCTATCACACACGCATAAATACAGATA [CACACA_site5449],8.55 ± 0.45
16,ATAAAAAAAAAAAAAAGTACACATATAAAAGTATTG [XGTACX_site8265],8.42 ± 0.41
17,ATTTATTTTATTTTCACACACAAAAATAAATATCCG [CACACA_site2414],8.44 ± 0.44
18,CGCAATTAAAATATGTGTCCTCATTTTATAACATTT [XGTACX_site5340],8.51 ± 0.38
